# Assay results reported in US20220135687A1 (NANJING LEGEND BIOTECH, published 2022).
# B1: 53C1_VH5-VL1.M1 (antibody, human IgG1, kappa)
# heavy: EVQLVQSGAEVKKPGASVKVSCKASGYIFTGYGITWVRQAPGQGLEWMGEIFPRRVNTYYSEKFKGRVTMTADTSTSTAYMELRSLRSDDTAVYYCARDYDPYFALDYWGQGTTVTVSSASTKGPSVFPLAPSSKSTSGGTAALGCLVKDYFPEPVTVSWNSGALTSGVHTFPAVLQSSGLYSLSSVVTVPSSSLGTQTYICNVNHKPSNTKVDKKV[sequence of human IgG1 Fc with changes omitted]
# light: DIQMTQSPSSLSASVGDRVTITCRASQDVSTAVDWYQQKPGKAPKLLIYSASYRYTGVPDRFSGSGSGTDFTFTISSLQPEDIATYYCQQHYSIPFTFGQGTKLEIKRTVAAPSVFIFPPSDEQLKSGTASVVCLLNNFYPREAKVQWKVDNALQSGNSQESVTEQDSKDSTYSLSSTLTLSKADYEKHKVYACEVTHQGLSSPVTKSFNRGEC
# notes: Humanized, hIgG1 effector-less Fc, kappa; see recheck on K24R in the .M1 light chain
# B2: 53C1_VH1-VL1.M1 (antibody, human IgG1, kappa)
# heavy: EVQLVQSGAEVKKPGASVKVSCKASGYIFTGYGITWVRQAPGQGLEWMGEIFPRRVNTYYSEKFKGRVTMTTDTSTSTAYMELRSLRSDDTAVYYCARDYDPYFALDYWGQGTTVTVSSASTKGPSVFPLAPSSKSTSGGTAALGCLVKDYFPEPVTVSWNSGALTSGVHTFPAVLQSSGLYSLSSVVTVPSSSLGTQTYICNVNHKPSNTKVDKKV[sequence of human IgG1 Fc with changes omitted]
# light: B1 light
# notes: as for B1
# B3: 53C1_VH1.M3-VL1.M1 (antibody, human IgG1, kappa)
# heavy: EVQLVQSGAEVKKPGASVKVSCKASGYIFTGYGITWVRQAPGQGLEWMGEIFPRRVQTYYSEKFKGRVTMTTDTSTSTAYMELRSLRSDDTAVYYCARDYDPYFALDYWGQGTTVTVSSASTKGPSVFPLAPSSKSTSGGTAALGCLVKDYFPEPVTVSWNSGALTSGVHTFPAVLQSSGLYSLSSVVTVPSSSLGTQTYICNVNHKPSNTKVDKKV[sequence of human IgG1 Fc with changes omitted]
# light: B1 light
# notes: Humanized, VH N57Q in the entry; hIgG1 effector-less Fc, kappa; see recheck on K24R in the .M1 light chain
# B4: 53C1_VH5.M3-VL1.M1 (antibody, human IgG1, kappa)
# heavy: EVQLVQSGAEVKKPGASVKVSCKASGYIFTGYGITWVRQAPGQGLEWMGEIFPRRVQTYYSEKFKGRVTMTADTSTSTAYMELRSLRSDDTAVYYCARDYDPYFALDYWGQGTTVTVSSASTKGPSVFPLAPSSKSTSGGTAALGCLVKDYFPEPVTVSWNSGALTSGVHTFPAVLQSSGLYSLSSVVTVPSSSLGTQTYICNVNHKPSNTKVDKKV[sequence of human IgG1 Fc with changes omitted]
# light: B1 light
# notes: as for B3
# B5: 53C1_VH6-VL1.M1 (antibody, human IgG1, kappa)
# heavy: EVQLVQSGAEVKKPGASVKLSCKASGYIFTGYGITWVRQAPGQGLEWMGEIFPRRVNTYYSEKFKGRVTMTADTSTSTAYMELRSLRSDDTAVYYCARDYDPYFALDYWGQGTTVTVSSASTKGPSVFPLAPSSKSTSGGTAALGCLVKDYFPEPVTVSWNSGALTSGVHTFPAVLQSSGLYSLSSVVTVPSSSLGTQTYICNVNHKPSNTKVDKKV[sequence of human IgG1 Fc with changes omitted]
# light: B1 light
# notes: as for B1
# B6: 53C1_VH4-VL1.M1 (antibody, human IgG1, kappa)
# heavy: EVQLVQSGAEVKKPGASVKLSCKASGYIFTGYGITWVRQAPGQGLEWMGEIFPRRVNTYYSEKFKGRVTMTTDTSTSTAYMELRSLRSDDTAVYYCARDYDPYFALDYWGQGTTVTVSSASTKGPSVFPLAPSSKSTSGGTAALGCLVKDYFPEPVTVSWNSGALTSGVHTFPAVLQSSGLYSLSSVVTVPSSSLGTQTYICNVNHKPSNTKVDKKV[sequence of human IgG1 Fc with changes omitted]
# light: B1 light
# notes: as for B1
# B7: 53C1_VH4.M3-VL1.M1 (antibody, human IgG1, kappa)
# heavy: EVQLVQSGAEVKKPGASVKLSCKASGYIFTGYGITWVRQAPGQGLEWMGEIFPRRVQTYYSEKFKGRVTMTTDTSTSTAYMELRSLRSDDTAVYYCARDYDPYFALDYWGQGTTVTVSSASTKGPSVFPLAPSSKSTSGGTAALGCLVKDYFPEPVTVSWNSGALTSGVHTFPAVLQSSGLYSLSSVVTVPSSSLGTQTYICNVNHKPSNTKVDKKV[sequence of human IgG1 Fc with changes omitted]
# light: B1 light
# notes: as for B3
# B8: 53C1_VH6.M3-VL1.M1 (antibody, human IgG1, kappa)
# heavy: EVQLVQSGAEVKKPGASVKLSCKASGYIFTGYGITWVRQAPGQGLEWMGEIFPRRVQTYYSEKFKGRVTMTADTSTSTAYMELRSLRSDDTAVYYCARDYDPYFALDYWGQGTTVTVSSASTKGPSVFPLAPSSKSTSGGTAALGCLVKDYFPEPVTVSWNSGALTSGVHTFPAVLQSSGLYSLSSVVTVPSSSLGTQTYICNVNHKPSNTKVDKKV[sequence of human IgG1 Fc with changes omitted]
# light: B1 light
# notes: as for B3
# Biological target: T1, human PD-L1 expressed on CHO-K1 cells (Genscript, Cat #M00543) (human, UniProt Q9NZQ7)
# Test: cell-based or functional assay
row,Binder,"EC50, PD-L1 cell-based luciferase reporter assay [nM]"
1,B1,2.33
2,B2,2.52
3,B3,1.47
4,B4,1.31

# Biological target: T1, human PD-L1 expressed on CHO-K1 cells …
# Test: FACS, CHO-K1/human PD-L1 cells
# Description: PD-L1 stable cell line binding activity assessment of 12 mouse mAbs was carried out using FACS. CHO-K1 cells expressing human PD-L1 (Genscript, Cat #M00543) were dissociated from adherent culture flasks and mixed with varying concentrations of antibodies. The antibody and cells were incubated for 30 minutes at room temperature, washed three times with FACS buffer (PBS containing 1% BSA). PE-labeled goat anti-mouse IgG (minimal x-reactivity) secondary antibody (BioLegend, Cat #405307) was added and incubated at room temperature for 15 minutes. Cells were washed again with FACS buffer and analyzed by FACSCalibur (BD Bioscience, San Jose, Calif.) and Flowjo software. Data were analyzed with Prism 6 (GraphPad Software, San Diego, Calif.) using non-linear regression, and EC₅₀ values were calculated (FIGS. 2A-2L and Table 3).
# Human and cynomolgus PD-L1 stable cell line binding activity assessment of chimeric and humanized mAbs was carried out using FACS as described above (FIGS. 9A-9L and FIGS. 10A-10L and Tables 13 and 14).
Binder,EC50 [nM],Top (best-fit value)
B1,1.96,6450
B2,1.12,6370
B3,1.03,6430
B4,1.06,6380

# Biological target: T2, cynomolgus PD-L1 overexpressing stable cell line (cynomolgus, UniProt G7PSE7 19-290)
# T2 construct: also called cynomolgus PD-L1 overexpressing cell line
# Test: FACS, cynomolgus PD-L1 cell line
Binder,EC50 [nM],Top (best-fit value)
B1,4.77,8390
B2,2.76,8430
B3,2.63,8420
B4,2.73,8570

# Biological target: T3, His-tagged PD-L1 ECD protein (ACROBiosystems) (human, UniProt Q9NZQ7 fragment)
# T3 construct: Bought protein; also called PD-L1-His; PD-L1/His; not shown: His tag
# Test: SPR, supernatant IgG captured, PD-L1-His analyte
Binder,Kd [nM],koff [s⁻¹],kon [M⁻¹ s⁻¹]
B1,0.31,0.00012,380000
B2,1.1,0.00026,240000
B3,0.32,0.0001,320000
B5,0.27,0.0001,370000
B6,0.75,0.0002,260000
B7,0.32,9.8e-05,310000
B4,0.16,6.1e-05,380000
B8,0.17,6.3e-05,370000

# Biological target: cynomolgus PD-L1 Fc-fusion protein (cynomolgus, UniProt G7PSE7 19-238)
# Test: SPR, cyno PD-L1-Fc immobilised, antibody analyte
Binder,Kd [nM],koff [s⁻¹],kon [M⁻¹ s⁻¹]
B1,0.83,8.4e-05,100000
B2,0.86,6.4e-05,75000
B3,0.95,9.4e-05,98000
B4,< 0.069,,140000

# Biological target: T3, His-tagged PD-L1 ECD protein …
# Test: SPR, IgG captured by anti-human Fc, PD-L1-His analyte
# Description: Briefly, capturing antibody (anti-mouse Fc antibody for the affinity measurement of mouse mAbs, or anti-human Fc antibody for the affinity measurement of chimeric and humanized mAbs, GE healthcare) was immobilized on a Biacore™ CM5 chip to approximately 7,000 RU using EDC-activated amine coupling chemistry. Antibody of interest (5 μg/ml) was captured for 60 seconds onto the sensorchip surface. His-tagged PD-L1 ECD protein (ACROBiosystems) was flowed over the sensorchip surface at a series concentrations. Flow rate was 30 μl/min in all experiments. Association and dissociation phases were 5 and 15 min, respectively. The chip was regenerated using Glycine/HCl pH 1.5. Captured antibody and antigen were removed between each cycle using 50 mM HCl in order to ensure a fresh binding surface for each concentration of antigen. The resulting sensorgrams were fit globally using a 1:1 binding model in order to calculate on- and off-rates (ka and kd, respectively), as well as affinities (KD).
Binder,Kd [nM],koff [s⁻¹],kon [M⁻¹ s⁻¹]
B1,0.47,0.00015,310000
B2,1.3,0.00027,200000
B3,0.57,0.00014,250000
B4,0.4,0.00011,290000

# Biological target: T1, human PD-L1 expressed on CHO-K1 cells …
# Test: FACS competition vs biotin-PD-1-Fc on CHO-K1/human PD-L1 cells
# Description: A series of diluted mouse mAbs (concentration starting from 900 nM, 3 fold dilution, 50 μl per well) were added afterwards. The mixture was incubated at 4° C. for 30 minutes, washed twice with wash buffer, followed by the addition of PEcy5/streptavidin (1 μg/ml, 150 μl/well). The plates were again incubated at 4° C. for 30 minutes before the cells in each well were analyzed by FACSCalibur (BD Bioscience, San Jose, Calif.) and Flowjo software.
row,Binder,IC50 [nM]
1,B1,0.429
2,B2,0.902
3,B3,0.28
4,B4,0.298
